The target in assay [1] is T1, RBFOX1 RRM (Homo sapiens) (UniProt Q9NWB1).
T1 sequence: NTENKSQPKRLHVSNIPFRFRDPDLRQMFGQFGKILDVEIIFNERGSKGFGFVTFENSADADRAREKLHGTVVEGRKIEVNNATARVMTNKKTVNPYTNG
The experiment in a line: EMSA. The following applies: HiTS-Eq, 1 nM pool, 10 min; buffer printed only for the single-RNA assays: 10 mM Tris pH 7.5, 150 mM NaCl, 3.4 mM EDTA, 0.001% NP-40, 30 C. (Mobility shift assays separate free from complexed probe on a gel.)

For assay [2], the target named is T2, RBFOX1 RRM RbFoxmut (Fox-RRM*) R118D + E147R + N151S + E152T (Homo sapiens) (UniProt Q9NWB1).
T2 sequence: T1 sequence with R10D, E39R, N43S, E44T
The experiment in a line: EMSA. The conditions noted are these: HiTS-Eq, 1 nM pool, 10 min; buffer printed only for the single-RNA assays: 10 mM Tris pH 7.5, 150 mM NaCl, 3.4 mM EDTA, 0.001% NP-40, 30 C.

Where a chain is given by its changes, count along the chain named. Some of the results follow.

In assay [1], “GGGAGACCGGAAUUCAGAUUGUCCCUCUCCCUUAAAUCCCGUCGUAGCCACCA / CAATCTGAATTCCGGTCTCCC / TGGTGGCTACGACGGGATT” returned a binding signal (KA relative to UGCAUGU) of 0.0066. The sequence “GGGAGACCGGAAUUCAGAUUGUCCCCCACAAUUAAAUCCCGUCGUAGCCACCA / CAATCTGAATTCCGGTCTCCC / TGGTGGCTACGACGGGATT” registered a binding signal (KA relative to UGCAUGU) in assay [1] of 0.00445. In turn, “GGGAGACCGGAAUUCAGAUUGUCCACCUCCCUUAAAUCCCGUCGUAGCCACCA / CAATCTGAATTCCGGTCTCCC / TGGTGGCTACGACGGGATT” displayed a binding signal (KA relative to UGCAUGU) in assay [1] of 0.00375. “GGGAGACCGGAAUUCAGAUUGUCCCGGUCCCUUAAAUCCCGUCGUAGCCACCA / CAATCTGAATTCCGGTCTCCC / TGGTGGCTACGACGGGATT”: in assay [1], the binding signal (KA relative to UGCAUGU) worked out at 0.0116. Still for that read-out and setting: to “GGGAGACCGGAAUUCAGAUUGUCCUCCCUACUUAAAUCCCGUCGUAGCCACCA / CAATCTGAATTCCGGTCTCCC / TGGTGGCTACGACGGGATT” belongs 0.00055. On to “GGGAGACCGGAAUUCAGAUUGUCCGAUCUCCUUAAAUCCCGUCGUAGCCACCA / CAATCTGAATTCCGGTCTCCC / TGGTGGCTACGACGGGATT”, for which the figures for the binding signal (KA relative to UGCAUGU) in assay [1] and in assay [2] were 0.0201 and 0.0833, respectively.

For “GGGAGACCGGAAUUCAGAUUGUCCCCGAUCAUUAAAUCCCGUCGUAGCCACCA / CAATCTGAATTCCGGTCTCCC / TGGTGGCTACGACGGGATT”, the binding signal (KA relative to UGCAUGU) in assay [1] came out at 0.0107; in assay [2], 0.0377. The like results for “GGGAGACCGGAAUUCAGAUUGUCCGGACUCCUUAAAUCCCGUCGUAGCCACCA / CAATCTGAATTCCGGTCTCCC / TGGTGGCTACGACGGGATT” were, in that order, 0.00542 and 0.116. The like results for “GGGAGACCGGAAUUCAGAUUGUCCCAUAUCAUUAAAUCCCGUCGUAGCCACCA / CAATCTGAATTCCGGTCTCCC / TGGTGGCTACGACGGGATT” were, in that order, 0.00246 and 0.0578. The like results for “GGGAGACCGGAAUUCAGAUUGUCCUGUAUCAUUAAAUCCCGUCGUAGCCACCA / CAATCTGAATTCCGGTCTCCC / TGGTGGCTACGACGGGATT” were, in that order, 0.00179 and 0.298. Regarding “GGGAGACCGGAAUUCAGAUUGUCCGGUCUCUUUAAAUCCCGUCGUAGCCACCA / CAATCTGAATTCCGGTCTCCC / TGGTGGCTACGACGGGATT”, the binding signal (KA relative to UGCAUGU) came to 0.0446 in assay [1] and 0.0768 in assay [2]. Take “GGGAGACCGGAAUUCAGAUUGUCCCGCAUCAUUAAAUCCCGUCGUAGCCACCA / CAATCTGAATTCCGGTCTCCC / TGGTGGCTACGACGGGATT”: the binding signal (KA relative to UGCAUGU) in assay [1] is 0.0136; in assay [2], 0.166. Consider “GGGAGACCGGAAUUCAGAUUGUCCCCCCCUGUUAAAUCCCGUCGUAGCCACCA / CAATCTGAATTCCGGTCTCCC / TGGTGGCTACGACGGGATT”, for which, in assay [1], the binding signal (KA relative to UGCAUGU) came to 0.0041.

Consider “GGGAGACCGGAAUUCAGAUUGUCCGGUCCCGUUAAAUCCCGUCGUAGCCACCA / CAATCTGAATTCCGGTCTCCC / TGGTGGCTACGACGGGATT”, for which the binding signal (KA relative to UGCAUGU) in assay [1] was determined as 0.00897. Turning to “GGGAGACCGGAAUUCAGAUUGUCCCUUAUCAUUAAAUCCCGUCGUAGCCACCA / CAATCTGAATTCCGGTCTCCC / TGGTGGCTACGACGGGATT”, the binding signal (KA relative to UGCAUGU) worked out at 0.00242 in assay [1] and 0.111 in assay [2].

“GGGAGACCGGAAUUCAGAUUGUCCGGUUUCCUUAAAUCCCGUCGUAGCCACCA / CAATCTGAATTCCGGTCTCCC / TGGTGGCTACGACGGGATT”: the binding signal (KA relative to UGCAUGU) in assay [1] came out at 0.0295; in assay [2], 0.172. In assay [1], “GGGAGACCGGAAUUCAGAUUGUCCCCCUCCGUUAAAUCCCGUCGUAGCCACCA / CAATCTGAATTCCGGTCTCCC / TGGTGGCTACGACGGGATT” yielded a binding signal (KA relative to UGCAUGU) of 0.00818. The sequence “GGGAGACCGGAAUUCAGAUUGUCCAGUCUCCUUAAAUCCCGUCGUAGCCACCA / CAATCTGAATTCCGGTCTCCC / TGGTGGCTACGACGGGATT” displayed a binding signal (KA relative to UGCAUGU) in assay [1] of 0.000385. Turning to “GGGAGACCGGAAUUCAGAUUGUCCCGAAUCAUUAAAUCCCGUCGUAGCCACCA / CAATCTGAATTCCGGTCTCCC / TGGTGGCTACGACGGGATT”, the binding signal (KA relative to UGCAUGU) in assay [2] was found to be 0.116. In the case of “GGGAGACCGGAAUUCAGAUUGUCCCGUACCAUUAAAUCCCGUCGUAGCCACCA / CAATCTGAATTCCGGTCTCCC / TGGTGGCTACGACGGGATT”, the binding signal (KA relative to UGCAUGU) is 0.0164 in assay [1] and 0.156 in assay [2].

In turn, “GGGAGACCGGAAUUCAGAUUGUCCCCCCAACUUAAAUCCCGUCGUAGCCACCA / CAATCTGAATTCCGGTCTCCC / TGGTGGCTACGACGGGATT” had a binding signal (KA relative to UGCAUGU) in assay [1] of 0.00312. For the sequence “GGGAGACCGGAAUUCAGAUUGUCCGUCUCCCUUAAAUCCCGUCGUAGCCACCA / CAATCTGAATTCCGGTCTCCC / TGGTGGCTACGACGGGATT”, the binding signal (KA relative to UGCAUGU) in assay [1] was 0.0532; in assay [2], 0.137.

On to “GGGAGACCGGAAUUCAGAUUGUCCAGUAUCAUUAAAUCCCGUCGUAGCCACCA / CAATCTGAATTCCGGTCTCCC / TGGTGGCTACGACGGGATT”, for which the binding signal (KA relative to UGCAUGU) in assay [1] was 0.0107; in assay [2] it was 0.106. Turning to “GGGAGACCGGAAUUCAGAUUGUCCGGCCCCCUUAAAUCCCGUCGUAGCCACCA / CAATCTGAATTCCGGTCTCCC / TGGTGGCTACGACGGGATT”, the binding signal (KA relative to UGCAUGU) was determined as 0.00542 in assay [1] and 0.00732 in assay [2]. The like results for “GGGAGACCGGAAUUCAGAUUGUCCGGUCUUCUUAAAUCCCGUCGUAGCCACCA / CAATCTGAATTCCGGTCTCCC / TGGTGGCTACGACGGGATT” were, in that order, 0.0144 and 0.233.

Consider “GGGAGACCGGAAUUCAGAUUGUCCGCCAUCAUUAAAUCCCGUCGUAGCCACCA / CAATCTGAATTCCGGTCTCCC / TGGTGGCTACGACGGGATT”, for which the binding signal (KA relative to UGCAUGU) in assay [1] amounted to 0.00482; in assay [2] it was 0.102. As to “GGGAGACCGGAAUUCAGAUUGUCCGCGAUCAUUAAAUCCCGUCGUAGCCACCA / CAATCTGAATTCCGGTCTCCC / TGGTGGCTACGACGGGATT”, the binding signal (KA relative to UGCAUGU) in assay [1] is 0.00743; in assay [2], 0.147. Consider “GGGAGACCGGAAUUCAGAUUGUCCUCUCCCAUUAAAUCCCGUCGUAGCCACCA / CAATCTGAATTCCGGTCTCCC / TGGTGGCTACGACGGGATT”, for which the binding signal (KA relative to UGCAUGU) in assay [1] amounted to 0.00556.

As to “GGGAGACCGGAAUUCAGAUUGUCCGGUCUCAUUAAAUCCCGUCGUAGCCACCA / CAATCTGAATTCCGGTCTCCC / TGGTGGCTACGACGGGATT”, the values for the binding signal (KA relative to UGCAUGU) in assay [1] and in assay [2] were 0.0132 and 0.107, respectively.

Regarding “GGGAGACCGGAAUUCAGAUUGUCCCGUCUCAUUAAAUCCCGUCGUAGCCACCA / CAATCTGAATTCCGGTCTCCC / TGGTGGCTACGACGGGATT”, the values for the binding signal (KA relative to UGCAUGU) in assay [1] and in assay [2] were 0.00727 and 0.114, respectively. The corresponding values for “GGGAGACCGGAAUUCAGAUUGUCCCCUAUCAUUAAAUCCCGUCGUAGCCACCA / CAATCTGAATTCCGGTCTCCC / TGGTGGCTACGACGGGATT” are 0.00204 and 0.151. Sequence “GGGAGACCGGAAUUCAGAUUGUCCCCACCCAUUAAAUCCCGUCGUAGCCACCA / CAATCTGAATTCCGGTCTCCC / TGGTGGCTACGACGGGATT” came in with a binding signal (KA relative to UGCAUGU) in assay [1] of 0.00425. Take “GGGAGACCGGAAUUCAGAUUGUCCCGUAUCCUUAAAUCCCGUCGUAGCCACCA / CAATCTGAATTCCGGTCTCCC / TGGTGGCTACGACGGGATT”: the results for the binding signal (KA relative to UGCAUGU) in assay [1] and in assay [2] were 0.00751 and 0.208, respectively. Turning to “GGGAGACCGGAAUUCAGAUUGUCCCGUAUCAUUAAAUCCCGUCGUAGCCACCA / CAATCTGAATTCCGGTCTCCC / TGGTGGCTACGACGGGATT”, the figures for the binding signal (KA relative to UGCAUGU) in assay [1] and in assay [2] were 0.000239 and 0.103, respectively. “GGGAGACCGGAAUUCAGAUUGUCCGGCUCCCUUAAAUCCCGUCGUAGCCACCA / CAATCTGAATTCCGGTCTCCC / TGGTGGCTACGACGGGATT”: the results for the binding signal (KA relative to UGCAUGU) in assay [1] and in assay [2] were 0.0973 and 0.058, respectively. The corresponding values for “GGGAGACCGGAAUUCAGAUUGUCCCGUUUCAUUAAAUCCCGUCGUAGCCACCA / CAATCTGAATTCCGGTCTCCC / TGGTGGCTACGACGGGATT” are 0.00263 and 0.0694. The corresponding values for “GGGAGACCGGAAUUCAGAUUGUCCGGUCUCCUUAAAUCCCGUCGUAGCCACCA / CAATCTGAATTCCGGTCTCCC / TGGTGGCTACGACGGGATT” are 0.497 and 0.0247. In assay [1], “GGGAGACCGGAAUUCAGAUUGUCCCCCAAUAUUAAAUCCCGUCGUAGCCACCA / CAATCTGAATTCCGGTCTCCC / TGGTGGCTACGACGGGATT” showed a binding signal (KA relative to UGCAUGU) of 0.00186. As for “GGGAGACCGGAAUUCAGAUUGUCCGGCCUCCUUAAAUCCCGUCGUAGCCACCA / CAATCTGAATTCCGGTCTCCC / TGGTGGCTACGACGGGATT”, the binding signal (KA relative to UGCAUGU) in assay [1] worked out at 0.0295; in assay [2] it was 0.0302. The corresponding values for “GGGAGACCGGAAUUCAGAUUGUCCGCUAUCAUUAAAUCCCGUCGUAGCCACCA / CAATCTGAATTCCGGTCTCCC / TGGTGGCTACGACGGGATT” are 0.00412 and 0.115. The corresponding values for “GGGAGACCGGAAUUCAGAUUGUCCGGUAUCAUUAAAUCCCGUCGUAGCCACCA / CAATCTGAATTCCGGTCTCCC / TGGTGGCTACGACGGGATT” are 0.0241 and 0.254. Turning to “GGGAGACCGGAAUUCAGAUUGUCCGGUCCCCUUAAAUCCCGUCGUAGCCACCA / CAATCTGAATTCCGGTCTCCC / TGGTGGCTACGACGGGATT”, the binding signal (KA relative to UGCAUGU) is 0.00415 in assay [1] and 0.0622 in assay [2]. For the sequence “GGGAGACCGGAAUUCAGAUUGUCCCGCCUCAUUAAAUCCCGUCGUAGCCACCA / CAATCTGAATTCCGGTCTCCC / TGGTGGCTACGACGGGATT”, the binding signal (KA relative to UGCAUGU) in assay [1] was 0.00495; in assay [2], 0.0711. “GGGAGACCGGAAUUCAGAUUGUCCCCCAACAUUAAAUCCCGUCGUAGCCACCA / CAATCTGAATTCCGGTCTCCC / TGGTGGCTACGACGGGATT”: the binding signal (KA relative to UGCAUGU) in assay [1] turned out to be 0.00306.
